“And” between values parts separate entries of the source, which are not always exact repeats. Equal values may be shown once. The whole screen tested about 420,000 compounds, of which about 50,000 (12%) were called active. The inconclusive results got no clear call from the source; some entries with a clear call stand among them for comparison. Calls follow the shape of the dose curve; as a rule, active = well fitted inhibition curve with a large enough effect; inconclusive = small, poorly fitted or top-dose-only effect; inactive = flat fitted curve, though single readings scatter. Potencies of inconclusive entries are doubtful fits and often do not repeat.
Assay: qHTS for Inhibitors of human tyrosyl-DNA phosphodiesterase 1 (TDP1): qHTS in cells in presence of CPT; also: nearly all actives have a fitted effect of over 55% in size
Conditions: chicken DT40 Tdp1-/-;hTDP1 cells + 20 nM CPT, ATP luminescence, 48 h; activity change, negative = growth inhibition: at 46.2 µM (top of the series) unless noted
Method in brief: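 Chicken DT40 Tdp1-/- cells stably complemented with human TDP1 were seeded at 400 cells/well in medium containing 20 nM camptothecin, exposed to pin-transferred compounds, and grown at 37 °C for at least 48 hr. Viability was read as ATP luminescence.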
For `Cc1ccc(C(=O)N/C(=C\c2cn(C)c3ccccc23)C(=O)NCCCN2CCOCC2)cc1`, the “activity change, negative = growth inhibition” value was inactive: 8.46%.
With `CN(CC(=O)Nc1ccc([N+](=O)[O-])cc1Br)Cc1c(F)cccc1Cl` the Potency was inconclusive: 18.4 µM [inhibitor, single point].
In the case of `Cc1ccc(NC(=O)c2nn(C)c3c2CS(=O)(=O)c2ccccc2-3)c(Cl)c1`, the “activity change, negative = growth inhibition” value is reported as inactive: 3.59%.
With `O=C(Nc1ccccc1N1CCCCC1)c1ccccc1F` the Potency was inconclusive: 20.6 µM [inhibitor, partial curve, poor fit].
With `O=C(Cn1c(CCCO)nc2ccccc21)Nc1ccccc1-c1ccccc1` the “activity change, negative = growth inhibition” value was inactive: -0.0439%.
For `COc1ccc(C(=O)c2sc(Nc3ccccc3F)nc2N)cc1`, the Potency was inconclusive: 14.6 µM [inhibitor, single point].
In the case of `C=C[C@]1(C)Cc2occ(C)c2C[C@H]1C(=C)C(=O)O`, the activity change, negative = growth inhibition is reported as inactive: -3.8% [at 9.04 µM].
In the case of `CN(CC(=O)Nc1ccccc1C(F)(F)F)C(=O)COc1ncnc2ccccc12`, the “activity change, negative = growth inhibition” value is reported as inactive: 1.91%.
In the case of `Cc1oc(S(=O)(=O)N2CCCCC2)cc1NC(=O)Nc1ccc(F)cc1`, the “activity change, negative = growth inhibition” value is reported as inactive: -19.2%.
In the case of `COc1ccccc1/C=C/C(=O)c1ccc(NC(C)=O)cc1`, the Potency is reported as inconclusive: 29.1 µM [inhibitor, single point].
With `O=C(CN1C(=O)NC2(CCCc3ccccc32)C1=O)N1CCc2ccccc2C1` (stereo not drawn) the Potency was inconclusive: 29.1 µM [inhibitor, partial curve].
In the case of `Cc1cccc(C)c1OCc1cc(C(=O)N2CCCC2c2nonc2C)no1` (stereo not drawn), the Potency is reported as inconclusive: 18.4 µM [inhibitor, single point].
With `Cc1cc(C)cc(NC(=S)NC2CC3CCCC(C2)N3C2CCCC2)c1` (stereo not drawn) the Potency was inconclusive: 29.1 µM [inhibitor, single point].
In the case of `Cc1nc(C2COc3ccccc3O2)sc1C(=O)O` (stereo not drawn), the “activity change, negative = growth inhibition” value is reported as inactive: -6.95%.
With `CCCNC(=O)C1(C)CCCN(Cc2ccccc2F)C1` (stereo not drawn) the “activity change, negative = growth inhibition” value was inactive: -23.2%.
In the case of `Cc1cc(Br)ccc1NC(=S)NC1CCCC1`, the “activity change, negative = growth inhibition” value is reported as inactive: -25.2%.
In the case of `COc1ccc(-c2nc3c(c(SCC(=O)Nc4ccc(C(=O)O)cc4)n2)Cc2ccccc2O3)cc1`, the “activity change, negative = growth inhibition” value is reported as inactive: -18.6%.
For `CC(Oc1ccccc1)C(=O)Nc1ccc(S(=O)(=O)N2CCN(C)CC2)cc1` (stereo not drawn), the activity change, negative = growth inhibition was inconclusive: -34.9% [inhibitor].
In the case of `O=C(CCCCCn1c(=O)c2sccc2n(CC(=O)Nc2cccc(Cl)c2)c1=O)NCc1ccc2c(c1)OCO2`, the Potency is reported as inconclusive: 29.1 µM [inhibitor, single point].
With `CCOc1ccc(-c2nnn(CC#N)n2)cc1OC` the Potency was inconclusive: 29.1 µM [inhibitor, single point].
In the case of `COc1cccc(N2CC(O)=C(c3nc4ccccc4c(=O)[nH]3)C2=N)c1`, the Potency is reported as active: 1.46 µM.
For `CCCCCCCCCc1nc2sc3c(c2c(=O)n1NC(=O)c1ccc([N+](=O)[O-])cc1)CC(C)(C)OC3`, the Potency was inconclusive: 29.1 µM [inhibitor, single point].
In the case of `Cc1cccc(C(C)C)c1NC(=O)COC(=O)c1cccc(S(=O)(=O)N2CCc3ccccc3C2)c1`, the Potency is reported as inconclusive: 16.4 µM [inhibitor, single point].
In the case of `C[C@H](CO)N1C[C@H](C)[C@@H](CN(C)S(C)(=O)=O)Oc2ccc(N(C)C)cc2C1=O`, the “activity change, negative = growth inhibition” value is reported as inactive: 7.08%.
With `CCCOc1c(OC)cccc1C1CC(=O)Nc2cc3c(cc21)OCO3` (stereo not drawn) the Potency was inconclusive: 29.1 µM [inhibitor, single point].
For `Oc1c(C(c2ccccc2)N2CCC3(CC2)OCCO3)sc2nc(-c3ccco3)nn12` (stereo not drawn), the “activity change, negative = growth inhibition” value was inactive: -6.06%.
In the case of `COc1cc(Cl)c(C)cc1NC(=O)c1cc(S(=O)(=O)N(C)C)ccc1N1CCCC1`, the Potency is reported as inconclusive: 29.1 µM [inhibitor, single point].
In the case of `Cc1ccc(C(=O)NCCc2ccccc2)cc1`, the “activity change, negative = growth inhibition” value is reported as inactive: -2.18%.
In the case of `CN(CC(=O)NC(=O)NCc1ccccc1)Cc1cccc(Cl)c1Cl`, the Potency is reported as inconclusive: 23.1 µM [inhibitor, partial curve].
In the case of `COc1cccc(C(=O)NC2(C(F)(F)F)C(=O)Nc3c2c(=O)[nH]c(=O)n3-c2ccc(C)cc2)c1` (stereo not drawn), the Potency is reported as active: 25.9 µM.
In the case of `CC(=O)Nc1ccc(S(=O)(=O)NC2CCSc3ccccc32)cc1` (stereo not drawn), the Potency is reported as inconclusive: 20.6 µM [inhibitor, partial curve].
In the case of `CCc1c(C)sc2c1CCN(C(=O)Nc1cc(OC)c(OC)c(OC)c1)C2c1ccccc1` (stereo not drawn), the Potency is reported as inconclusive: 14.6 µM [inhibitor, single point].
With `CCc1cccc(NC(=O)CSc2ncc3c(n2)-c2ccc(Cl)cc2N(Cc2ccccc2)S3(=O)=O)c1` the Potency was active: 18.4 µM.
In the case of `CC1(c2ccc(Cl)cc2Cl)OCC(Cn2ccnc2)O1` (stereo not drawn), the Potency is reported as active: 20.6 µM.
With `COc1ccc(C(=O)OCC2CC(c3ccccc3)=NO2)cc1OC` (stereo not drawn) the Potency was active: 23.1 µM.
In the case of `COc1ccccc1NC(=S)N1CCN(C/C=C/c2ccccc2)CC1`, the Potency is reported as inconclusive: 16.4 µM [inhibitor, single point].
For `COc1ccc(-c2cc(C(F)(F)F)nc(SCC(=O)Nc3sc4c(c3C#N)CCC4)n2)cc1`, the Potency was inconclusive: 29.1 µM [inhibitor, single point].
In the case of `CCCN(CC(=O)Nc1ccc(C)cc1Br)CC(=O)Nc1ccc(F)c(F)c1F`, the Potency is reported as inconclusive: 25.9 µM [inhibitor, single point].
With `O=C(NC(=S)Nc1nc(-c2ccccc2)cs1)c1cccnc1` the “activity change, negative = growth inhibition” value was inactive: 4.65%.
For `O=C1c2[nH]nc(-c3ccccc3O)c2C(c2ccccc2)N1Cc1ccco1` (stereo not drawn), the Potency was active: 23.1 µM.
For `CCOC(=O)c1c(C)n(C)c2ccc(OCC(O)CN3C(=O)c4ccccc4S3(=O)=O)cc12` (stereo not drawn), the Potency was active: 16.4 µM.
In the case of `Cc1ccc(C(C(=O)NCc2ccco2)N(CCc2ccccc2)C(=O)Cn2nnc3ccccc32)o1` (stereo not drawn), the Potency is reported as inconclusive: 23.1 µM [inhibitor, partial curve].
With `Cc1ccc(-c2csc3nc[nH]c(=S)c23)cc1` the Potency was active: 3.26 µM.
For `CC(NC(=O)Cc1ccc(S(=O)(=O)N2CCOCC2)s1)c1ccc(Cl)cc1Cl` (stereo not drawn), the Potency was inconclusive: 29.1 µM [inhibitor, single point].
In the case of `CCCCN(C)CCNC(=O)c1ccc2c(=O)n(CCc3ccccc3)c(=O)[nH]c2c1`, the Potency is reported as active: 13 µM.
In the case of `COc1cc2c(cc1OC)C(/C=C/c1ccco1)=NCC2`, the Potency is reported as active: 23.1 µM.
For `COC(=O)c1sccc1NC(=O)C1CC1`, the “activity change, negative = growth inhibition” value was inactive: 13%.
For `O=C1CCN(Cc2ccc([N+](=O)[O-])cc2)CCN1[C@H](CO)Cc1ccccc1`, the Potency was “inactive and inconclusive: 20.6 µM [inhibitor, partial curve]”.
For `O=C(CCc1ccccc1)Nc1cccc(S(=O)(=O)N2CCOCC2)c1`, the Potency was inconclusive: 32.6 µM [inhibitor, single point].
In the case of `CCc1ccc(NC(=O)C(NS(=O)(=O)c2cccs2)C(C)C)cc1` (stereo not drawn), the Potency is reported as inconclusive: 29.1 µM [inhibitor, single point].
With `CN(C)S(=O)(=O)n1cnc(C(CCO)c2ncn(S(=O)(=O)N(C)C)c2CCCO)c1` (stereo not drawn) the “activity change, negative = growth inhibition” value was inactive: 0.177%.
With `COc1nc(NCCc2ccc(OC)c(OC)c2)nc(Nc2ccccc2)n1` the Potency was active: 14.6 µM.
In the case of `Nc1nc(SCC(=O)Nc2ccccc2C(F)(F)F)[nH]c(=O)c1-c1ccccc1`, the “activity change, negative = growth inhibition” value is reported as inactive: 0%.
With `CN(C)C=NC(=O)c1[nH]c2ccc(Cl)cc2c1-c1ccccc1` the Potency was inconclusive: 18.4 µM [inhibitor, single point].
For `CN(C)CC1CCC/C(=C\c2ccc(OC(=O)/C=C/c3ccc(Cl)c(Cl)c3)cc2)C1=O` (stereo not drawn), the Potency was active: 0.731 µM.
With `CCCNC(=O)c1cc(C2CCCCN2C(=O)OCCF)on1` (stereo not drawn) the “activity change, negative = growth inhibition” value was inactive: -3.42%.
For `COC(=O)C1=NN(C(=O)c2ccc(Cl)cc2)C(O)(c2ccccc2)C1` (stereo not drawn), the “activity change, negative = growth inhibition” value was inactive: -32.1%.
With `CC(Oc1cccc(Cl)c1)C(=O)Nc1ccc(S(=O)(=O)NC2=NCCCCC2)cc1` (stereo not drawn) the Potency was inconclusive: 23.1 µM [inhibitor, single point].
With `CCOC(=O)C1CCCN(c2c(C(=O)c3ccccc3)cnc3ccc(OC)cc23)C1` (stereo not drawn) the Potency was active: 14.6 µM.
In the case of `COc1ccccc1C(=O)NCC(=O)N1CC=C(c2ccccc2)CC1`, the Potency is reported as inconclusive: 18.4 µM [inhibitor, single point].
In the case of `Cc1ccc(CNc2cc(-c3nn4c(C)nnc4s3)ccc2C)s1`, the Potency is reported as inconclusive: 18.4 µM [inhibitor, single point].
For `COc1ccccc1CN=c1c([N+](=O)[O-])nn(-c2ccc3c(c2)OCCO3)n1O`, the Potency was inconclusive: 29.1 µM [inhibitor, single point].
In the case of `CCCc1[nH]nc2c1C(c1ccsc1)C(C#N)=C(N)O2` (stereo not drawn), the Potency is reported as active: 16.4 µM.
With `CCC(=O)Nc1ccc(NC(=O)CSc2nc3cc4c(cc3cc2C)CCC4)cc1` the Potency was inconclusive: 20.6 µM [inhibitor, single point].
With `CCCn1c(CN2CCN(C(=O)OCC)CC2)nc2cc(NC(=O)C(C)C)ccc21` the Potency was active: 20.6 µM.
In the case of `O=C(CCCn1c(=S)[nH]c2cc3c(cc2c1=O)OCO3)NCc1cccc(Cl)c1`, the Potency is reported as inconclusive: 8.2 µM [inhibitor, single point].
With `O=C(Cn1[nH]c(=O)c2ccccc2c1=O)NCC1COc2ccccc2O1` (stereo not drawn) the Potency was inconclusive: 29.1 µM [inhibitor, single point].
In the case of `O=C(COc1ccc(Cl)cc1[N+](=O)[O-])NC1CCCCC1`, the Potency is reported as inconclusive: 25.9 µM [inhibitor, single point].
For `O=C1C2C3C=CC(CC3)C2C(=O)N1c1nccs1` (stereo not drawn), the “activity change, negative = growth inhibition” value was inactive: 0.843%.
In the case of `CCC(=O)Nc1ccc(Nc2nc(C)c([N+](=O)[O-])c(Nc3ccc(NC(=O)CC)cc3)n2)cc1`, the Potency is reported as active: 8.2 µM.
For `COc1ccc(-c2onc(C)c2-c2cscn2)c(O)c1`, the “activity change, negative = growth inhibition” value was inactive: 5.54%.
In the case of `CC(C)C[C@H]1COc2cc(N3CCN(Cc4ccccc4F)CC3)ccc2S(=O)(=O)N1`, the Potency is reported as inconclusive: 25.9 µM [inhibitor, single point].
In the case of `COC(=O)N1CCC2(CCN(C(=O)Nc3ccccc3)CC2)CC1`, the “activity change, negative = growth inhibition” value is reported as inactive: -4.74%.

From PubChem BioAssay AID686979 (National Center for Advancing Translational Sciences (NCATS), 2013)
% is scaled to controls: 0 for no effect and ±100 for the full control effect; potency is read from the fitted curve at half-maximal effect; tags tell the direction and shape of the fitted curve.
